Inconclusive means that the source gave no clear call. Such entries were picked first, then a sample of the others. For part of these data: Where the call is inconclusive, the potency comes from a doubtful curve fit. The source made the active and inactive calls. Unless noted, the call rests on the fitted dose curve; in most records, active means well fitted curve in either direction with a large enough effect (not every such curve was filed as active); inconclusive means small, poorly fitted or top-dose-only effect, or another doubt; inactive means flat fitted curve, though single readings scatter.
System: not listed separately
Experiment: NFAT Signaling Pathway (AID 444);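 further: carbachol stimulus at about its EC50 of 1 µM final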
Settings: Jurkat NFAT-bla M1, carbachol, beta-lactamase ratio, 5 h; at 17.2 µM (top of the series) unless noted
In short: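 Jurkat cells with NFAT-driven β-lactamase reporter and co-expressed M1 receptor, stimulated with carbachol (final 1 uM, ~EC50), compound titration, 5 h at 37 °C. CCF4 loaded 1 h at RT; 460/530 nm ratio gave %activity and AC50.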
On the % scale 0 is the no-effect control and ±100 the full control effect; tags describe the fitted curve by direction and shape.

| SMILES | activity change, negative = inhibition |
| --- | --- |
| CC(=O)Nc1ccc2c(c1)/C(=C/c1ccc([N+](C)(C)C)cc1)c1ccccc1-2 | inconclusive: -37.2% [inhibitor] [at 7.69 µM] |
| CC1(C)CC(=O)C(C(c2cccc(O)c2O)C2C(=O)CC(C)(C)CC2=O)C(=O)C1 | inactive: 2.55% [at 7.69 µM] |
| c1ccc(CN2CC[C@@H](CNc3ncnc4ccccc34)C2)cc1 | inconclusive: -30% [inhibitor] [at 7.69 µM] |
| COC(=O)c1ccc(CCc2cc(O)ccc2O)cc1 | inconclusive: -81.8% [inhibitor] [at 7.69 µM] |
| COC(=O)N1CCC2(CCN(Cc3ccccc3OC)CC2)CC1 | inconclusive: -39.8% [inhibitor] [at 7.69 µM] |
| O=C(O)[C@@H]1Cc2c([nH]c3ccccc23)[C@@H](CCCCO)N1 | inactive: 3.55% [at 7.69 µM] |
| CC(=O)NCCNc1ncnc2ccc(-c3c(C)noc3C)cc12 | inconclusive: -46.4% [inhibitor] [at 7.69 µM] |
| N#Cc1ccc(CN2CCC3(CC2)CCN(C(=O)c2ccncc2)CC3)cc1 | inconclusive: -66% [inhibitor] [at 7.69 µM] |
| c1ccc(CCNCc2ccco2)nc1 | inactive: -2.01% [at 7.69 µM] |
| Cc1ccc(C)c(/C(=N\N=C(N)N)C2CC2)c1 | inconclusive: -34% [inhibitor] [at 7.69 µM] |
| NC(=O)/C(=C\c1ccncc1)c1cccc2ccccc12 | inconclusive: -40.5% [inhibitor] [at 7.69 µM] |
| Cc1ccccc1C(=N)c1ccccc1Cc1cccc2ccccc12 | inconclusive: -30.9% [inhibitor] [at 7.69 µM] |
| N#Cc1cccc(NC(=O)N2CC3(CCN(C(=O)c4ccco4)CC3)C2)c1 | inconclusive: 59.6% [activator] [at 7.69 µM] |
| NS(=O)(=O)c1ccc(N=Nc2ncccc2O)cc1 | inconclusive: -34% [inhibitor] [at 7.69 µM] |
| CC(C)(C)c1ccc(-c2nnc(SCc3ccc(Cl)cc3)n2-c2cccc(C(F)(F)F)c2)cc1 | inactive: -23.1% [at 7.69 µM] |
| O=c1[nH]c(SCc2cccc([N+](=O)[O-])c2)nc2nc[nH]c12 | inactive: -8.58% [at 7.69 µM] |
| COc1ccccc1CN1CCC2(CC1)CCN(C(=O)c1c(C)noc1C)CC2 | inconclusive: -48.2% [inhibitor] [at 7.69 µM] |

System: not listed separately
Experiment: Stat Signaling Pathway (AID 446);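 further: ME-180 cervical cancer cells given 40 pM IL-6 alongside compound; SIE-controlled beta-lactamase reporter measured as 460/530 nm FRET emission ratio; top concentration of the series differs between compounds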
Settings: ME-180 SIE beta-lactamase reporter, IL-6 stimulated, 5 h; at 7.69 µM (top of the series) unless noted
In short: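 Reporter line: ME-180 cervical carcinoma, SIE-beta-lactamase. Treatment: compound with 40 pM IL-6, 5 hrs, 37 C, in low-serum OPTI-MEM with 10 mM HEPES pH 7.3. Detection: 460/530 nm fluorescence.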

| SMILES | activity, negative = inhibition |
| --- | --- |
| C[C@@](N)(Cc1ccc(O)cc1)C(=O)O | inconclusive: -51.1% [inhibitor] [at 38 µM] |
| O=C(O)c1ccccc1-c1ccccc1C(=O)Nc1ccc2c(c1)[nH]c(=O)c1ccccc12 | inactive: -25.4% |
| CC(CO)(CO)Nc1ncnc2ccccc12 | inactive: 12.4% |
| O=c1ccc2cc(O)c(O)cc2o1 | inconclusive: 50.8% [activator] [at 17.2 µM] |
| c1c[nH]c(CN2CCOCC2)n1 | inconclusive: 2.28% [inhibitor] |
| CCc1cccc2c3c([nH]c12)[C@](CC)(CC(=O)O)OCC3 | inconclusive: 41.6% [activator] [at 38 µM] |
| N#Cc1ccccc1-c1ccc2ncnc(NC3CC3)c2c1 | inconclusive: 109% [activator] |
| COc1cc(C)cc(OC)c1/C=C\C(=O)O | inactive: 7.32% |
| O=C(c1cnccn1)N1CCC2(CC1)CN(c1ccncc1)C2 | inactive: 2.09% |
| COc1cc(C)cc2c(-c3c(O)cc(O)c4c3C[C@H](C)N[C@@H]4C)cc(-c3cc(-c4c(O)cc(O)c5c4C[C@H](C)N[C@@H]5C)c4cc(C)cc(OC)c4c3O)c(O)c12 | inactive: 5.82% |
| Cn1c(N)nc2c(nc(OCc3ccccc3)n2[C@@H]2O[C@H](CO)[C@@H](O)[C@@H]2O)c1=O | inactive: -1.71% |

Target: Mitogen-activated protein kinase 10 (Mus musculus) (UniProt Q61831)
Experiment: JNK3 AlphaScreen Assay (AID 530);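 further: kinase came from lysate of stimulated human HepG2 cells; signal reports phosphorylation of biotinylated GST-cJun 1-79 at Ser73 with 10 µM ATP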; further: potency means the concentration at half of the fitted maximal effect
Settings: JNK3 lysate, c-Jun phosphorylation; activity change, negative = inhibition: at 57.1 µM (top of the series)
In short: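 Pre-activated (IL-1β/TNFα) JNK3 in HepG2 lysates phosphorylates biotin-GST-cJun(1-79), 10 uM ATP; anti-phospho-cJun(Ser73) AlphaScreen read at room temperature, pH 7.6 Tris buffer. Compounds pre-incubated 15 min as titrations.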

| SMILES | Potency | activity change, negative = inhibition |
| --- | --- | --- |
| C[C@@](N)(Cc1ccc(O)cc1)C(=O)O | inconclusive: 39.8 µM [activator, partial curve, poor fit] |  |
| N#Cc1ccccc1-c1ccc2ncnc(NC3CC3)c2c1 | inactive |  |
| COc1cc(C)cc(OC)c1/C=C\C(=O)O |  | inactive: -0.112% [at 11.4 µM] |
| O=C(c1cnccn1)N1CCC2(CC1)CN(c1ccncc1)C2 | inconclusive: 0.0158 µM [activator, full curve, poor fit] |  |

Target: Cytochrome P450 2C9 (Homo sapiens) (UniProt P11712)
UniProt P11712, sequence (P11712 whole entry, looked up): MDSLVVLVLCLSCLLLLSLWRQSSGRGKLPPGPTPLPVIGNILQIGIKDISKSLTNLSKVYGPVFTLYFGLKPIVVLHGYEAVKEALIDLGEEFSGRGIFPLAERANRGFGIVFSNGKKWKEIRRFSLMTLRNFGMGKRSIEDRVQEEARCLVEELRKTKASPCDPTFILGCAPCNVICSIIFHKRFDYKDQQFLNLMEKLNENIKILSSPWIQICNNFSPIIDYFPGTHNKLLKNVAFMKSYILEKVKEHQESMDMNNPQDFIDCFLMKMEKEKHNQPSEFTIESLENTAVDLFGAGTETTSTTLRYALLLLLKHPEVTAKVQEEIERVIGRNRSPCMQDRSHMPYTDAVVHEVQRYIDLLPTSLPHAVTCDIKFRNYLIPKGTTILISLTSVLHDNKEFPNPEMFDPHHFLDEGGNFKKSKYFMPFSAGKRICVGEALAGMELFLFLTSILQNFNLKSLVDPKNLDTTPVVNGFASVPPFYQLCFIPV
Experiment: qHTS Assay for Inhibitors and Substrates of Cytochrome P450 2C9 (AID 883; active means well fitted inhibition curve with a large enough effect; inconclusive means small, poorly fitted or top-dose-only effect; inactive means no such curve, though single readings can be large or run the other way; further: nearly all actives have a fitted effect of over 60% in size; further: potency means the concentration at half of the fitted maximal effect)
Settings: recombinant CYP2C9, luciferin-H luminescence, 60 min; activity change, negative = inhibition: at 57.1 µM (top of the series)
In short: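 Human CYP2C9 (10nM) with Luciferin-H at 100uM (its KM) in 25mM KPO4; compound preincubated 10 min at 37C, then NADPH regeneration for 60 min at 37C. Luciferin read by luminescence after detection reagent; normalized to 57uM sulphaphenazole as full inhibition.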

| SMILES | Potency |
| --- | --- |
| COc1ccc(C(=O)N/N=C2/C(=O)c3c(C)cc(C)cc3CC2(C)C)cc1 | inconclusive: 6.31 µM [inhibitor, single point] |
| COc1ccc2c3c([nH]c2c1)[C@@H]1C[C@@H]2[C@@H](C[C@H](O)[C@H](OC)[C@H]2C(=O)O)CN1CC3 | inactive |
| NC(CSS(=O)(=O)O)=N[C@@H]1C[C@H]2CC[C@@H]1C2 | inconclusive: 7.94 µM [inhibitor, single point] |
| O=C(O)c1ccccc1-c1ccccc1C(=O)Nc1ccc2c(c1)[nH]c(=O)c1ccccc12 | inconclusive: 3.16 µM [inhibitor, single point] |
| O=C(CCN1CCCCC1)c1csc2ccccc12 | inconclusive: 3.16 µM [inhibitor, single point] |
| CC(=O)Nc1ccc2c(c1)/C(=C/c1ccc([N+](C)(C)C)cc1)c1ccccc1-2 | inconclusive: 3.16 µM [inhibitor, partial curve] |
| COC(=O)c1ccc(CCc2cc(O)ccc2O)cc1 | inconclusive: 7.94 µM [inhibitor, single point] |
| NC(=O)/C(=C\c1ccncc1)c1cccc2ccccc12 | inconclusive: 2.51 µM [inhibitor, partial curve] |
| NS(=O)(=O)c1ccc(N=Nc2ncccc2O)cc1 | inconclusive: 6.31 µM [inhibitor, single point] |
| CC(C)(C)c1ccc(-c2nnc(SCc3ccc(Cl)cc3)n2-c2cccc(C(F)(F)F)c2)cc1 | inconclusive: 3.16 µM [inhibitor, partial curve] |

Source: PubChem BioAssay (NCATS)
